Data published in PubChem BioAssay AID1346428 (National Center for Advancing Translational Sciences (NCATS), 2018).
The campaign covered roughly 48,000 compounds. About 1,200 (2.5%) were called active. Roughly 2% stayed inconclusive and do not appear here.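 The calls were made as follows: active = activation of at least 60% and not above a set upper limit (about 1 call in 100 departs from these limits); inconclusive = activation of 40% to 60%, or above that upper limit; inactive = activation under 40%.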 The list shows a part of the results.

What follows are compounds tested against Probable G-protein coupled receptor 32 (Homo sapiens) (UniProt O75388) (assay: qHTS for Agonists of Human Resolvin D1 Receptor DRV1). Conditions: CHO-K1 GPR32 beta-arrestin PathHunter luminescence, 90 min; at 76.9 µM; stronger effect = higher value; zero percent set by DMSO-only wells.
Sequence of UniProt O75388 (O75388 whole entry, looked up, the tested form may be a part): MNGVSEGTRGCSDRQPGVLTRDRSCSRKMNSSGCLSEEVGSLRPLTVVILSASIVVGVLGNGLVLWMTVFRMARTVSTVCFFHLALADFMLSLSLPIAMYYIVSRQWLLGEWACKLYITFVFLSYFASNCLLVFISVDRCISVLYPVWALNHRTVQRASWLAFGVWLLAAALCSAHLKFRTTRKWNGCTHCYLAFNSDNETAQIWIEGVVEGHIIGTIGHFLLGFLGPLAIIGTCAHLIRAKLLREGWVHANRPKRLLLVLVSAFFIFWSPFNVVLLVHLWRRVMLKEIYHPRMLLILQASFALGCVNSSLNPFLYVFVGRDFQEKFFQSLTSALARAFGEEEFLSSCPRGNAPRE
How it was run: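 GPR32 activation in stably transfected CHO-K1 cells, detected as beta-arrestin recruitment by enzyme-fragment complementation. Compound exposure: 90 min, 37 °C.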
Also: 0% is about no effect.

activation, inactive:
Cc1ccc(C)c(Cn2c(=O)n(CCC(=O)NCc3ccc4c(c3)OCO4)c(=O)c3sccc32)c1 -22.1%, Cc1cccc(Cc2c(C)nc3nc(SCc4ccccc4Cl)nn3c2C)c1 -6.53%, CCOc1ccc(NC(=O)C2CCN(S(=O)(=O)c3c(C)noc3/C=C/c3cccs3)CC2)cc1 -19.2%, CCCCNC(=O)CN1C(=O)COc2ccc(S(=O)(=O)N3CCCCCC3)cc21 -15.7%, Cn1cccc1-c1cc2n(n1)CCC(=O)N2CCCC(=O)NCc1ccc(F)cc1 -15.3%, COc1ccc(C(=O)Nc2ccc3oc(-c4ccc5ccccc5c4)nc3c2)cc1Br -11.5%, COC(=O)CNC(=O)N1CCN(S(=O)(=O)c2ccc3c(ccn3C)c2)CC1 -5.24%, CCOc1ccc(-c2nnc(SCC(=O)c3ccccc3)n2-c2ccccc2)cc1 -2.21%, Cc1ccc(NC(=O)c2ncoc2-c2ccco2)cc1Cl -8.34%, Cc1cccc(C)c1NC(=O)Cn1c(SCC(=O)NCc2ccccc2)nc2ccccc21 -2.73%, Cc1cc(=O)[nH]c2nnc(SCc3ccc(C(F)(F)F)cc3)n12 36.2%, CCOC(=O)c1[nH]c(C)c(CCC(=O)Nc2cccc(SC)c2)c1C -11.2%, COc1ccc2cc(CNc3ccc(OC)c(OC)c3)c(=O)n(CC(=O)Nc3ccccc3F)c2c1 -16.4%, CC(C)CCNC(=O)c1ccc2c(c1)N(Cc1ccccc1F)C(=O)c1ccccc1S2(=O)=O -10.6%, O=S(=O)(c1ccc(-c2csc(=Nc3ccc(OC(F)(F)Cl)cc3)n2CCCO)cc1)N1CCCC1 1.14%, O=C(Nc1cc2ccc(O)cc2oc1=O)c1ccccc1 -10.9%, Fc1cccc(Cl)c1CNCCSc1nnnn1-c1ccccc1 -9.42%, COc1cccc(C(=O)N(Cc2ccco2)c2ccccn2)c1 -4.1%, O=C(CNC(=O)c1ccccc1F)OCc1cc(=O)n2nc(C3CCCCC3)sc2n1 9.46%, CCOC(=O)c1ccc(NC(=O)CSc2nccn2-c2cc(C)cc(C)c2)cc1 -1.88%, CCOc1ccccc1NC(=O)Nc1cc2c(cc1N1CCCCC1)n(CC)c(=O)n2CC -31%, O=C1CC(c2ccc(F)cc2)c2c(c3ccccc3[nH]c2=O)O1 (configuration not stated) 5.9%, CC(=O)c1ccc(N2CCN(C(=O)CCn3cnc4onc(-c5ccc(F)cc5)c4c3=O)CC2)cc1 29.2%, CC(=O)N(CC(O)CN(C(C)=O)c1c(I)c(C(=O)NCC(O)CO)c(I)c(C(=O)NCC(O)CO)c1I)c1c(I)c(C(=O)NCC(O)CO)c(I)c(C(=O)NCC(O)CO)c1I (configuration not stated) -9.79%, O=C(Nc1c(-c2ccccc2)nc2ccccn12)c1ccccc1F -0.759%, Cc1ccc(-c2noc(-c3cc(-c4ccc(F)cc4)n[nH]3)n2)cc1 6.12%, CCn1cc(C(=O)NCCc2ccc(C)cc2)c(=O)c2cc(S(=O)(=O)N3CCc4ccccc4C3)ccc21 10.4%, Cc1cc(C)cc(NC(=O)CNS(=O)(=O)c2ccc3nc(C)sc3c2)c1 -9.22%, CN1C(=O)Cc2cc(S(=O)(=O)CCC(=O)Nc3ccc(OC(F)(F)F)cc3)ccc21 -8.97%, CCOc1ccc(OC(=O)c2c(-c3ccccc3Cl)noc2C)cc1 30.2%, CCN(C(=O)C1CCCN(c2ncnc3c2nc2n3CCCCC2)C1)c1cccc(C)c1 (configuration not stated) 26.6%, Cc1ccc(NC(=O)CN2C(=O)c3ccccc3Sc3ccc(C(=O)N4CCOCC4)cc32)c(Cl)c1 -24.8%, CCN(CC)S(=O)(=O)c1ccc2oc(C(=O)Nc3cc(C)ccc3OC)c(C)c2c1 -4.95%, CCc1cc2c(cc3c(=O)n(CC(=O)NCc4cc(Br)ccc4OC)ncn32)s1 -12.6%, CCc1cc2c(cc3c(=O)n(CC(=O)NC4CCCCC4)nc(CC)n32)s1 -1.84%, Cc1cn(C)c(CC(=O)N2CCN(c3cccc(C(F)(F)F)c3)CC2)c1C(=O)O 1.14%, CCOC(=O)CCN(c1ccccc1)S(=O)(=O)c1cc(-c2cc(C)no2)ccc1C -25.6%, Cc1ccc(C(=O)NCC(=O)OCc2cc(=O)n3c(C)csc3n2)cc1 0.748%, CC(=O)N1CCc2c(sc3c2c(=O)n(-c2ccccc2C)c(=O)n3CC(=O)c2ccccc2)C1 -0.946%, Cc1cc(C)c2oc(C(=O)Nc3c(C)n(C)n(-c4ccccc4)c3=O)cc(=O)c2c1 -1.41%, O=C(NCC(c1cccnc1)N1CCc2ccccc21)c1ccc(F)c(F)c1 (configuration not stated) -29.2%, Cc1cccc(C(=O)Nc2cccc(OCc3cc(=O)n4cc(C)sc4n3)c2)c1 3.02%, Cc1ccc(C(C)C)c(OCC(=O)NCC2(N3CCOCC3)CCCCC2)c1 -28.5%, CC(C)n1cc2c(c1-c1ccccc1Cl)c(=O)n(C)c(=O)n2C -10.5%, Cc1ccc(C)c(NC(=O)Cn2c(=O)n(-c3ccccc3C)c(=O)c3c2c2cc(C)ccc2n3C)c1 -3.81%, Cc1ccc(-n2cc3c(c2-c2ccccc2Br)c(=O)n(C)c(=O)n3C)cc1N -33.9%, COc1ccccc1N1CCN(CCCNC(=O)c2nnc(Cc3c(F)cccc3Cl)o2)CC1 3.16%, COc1ccccc1-c1nc2c(c(SCC(=O)Nc3ccccc3F)n1)Cc1c(CO)cnc(C)c1O2 -14.5%, COc1ccc(-c2cc(-c3ccccc3)c(C#N)c(SCC(O)CS(=O)(=O)Cc3ccccc3)n2)cc1 (configuration not stated) -2.87%, CCN1CCN(CCCNC(=O)Cn2c(-c3cccs3)cc3ccccc32)CC1 2.63%, Cc1ccc2c(=O)cc(C(=O)N(Cc3ccccc3Cl)C3CCS(=O)(=O)C3)oc2c1 (configuration not stated) 5.24%, COc1ccccc1C(=O)Nc1c(C(=O)N2CCN(c3ccc(F)cc3)CC2)oc2ccccc12 4.87%
